# Reference: PMC6212790
# The list shows a part of the results. At the low end of the ranking the order means little.
# Biological target: T1, GST-Rok-C97-191 (UniProt O34857)
# T1 sequence: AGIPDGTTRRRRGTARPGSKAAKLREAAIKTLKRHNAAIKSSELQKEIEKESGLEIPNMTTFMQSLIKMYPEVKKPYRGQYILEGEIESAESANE
# Assay: protein binding microarray;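 also: rank score from −0.5 (least bound) to 0.5 (best bound)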
# Settings: Rok is a gene silencer of Bacillus subtilis; high values mean tight binding; most listed sequences are background and not binding sites; double strand, one strand shown
row,Sequence,binding signal [E-score]
1,ACATATGG,0.132
2,CTACAGCA,0.13
3,GATAGAAC,0.289
4,AAAATCCG,-0.0518
5,GCGTATAC,-0.124
6,ACGAGCAT,0.0539
7,ATTGGCCG,-0.00492
8,ACAGCCTA,-0.0107
9,ACCTAGCG,0.0206
10,GACAATGC,-0.329
11,AAAGGTTG,-0.0321
12,ACTATCAG,0.0802
13,ATGGTGTG,-0.0562
14,AAGTCGAC,0.0287
15,ACCACGAT,-0.103
16,AGTGTCAC,0.0262
17,GCGGAAGA,-0.192
18,AGAGACCG,-0.188
19,GGATCTAC,0.259
20,AACACACT,0.199
21,ATAGTTCA,0.265
22,AGATGACC,-0.241
23,GCGCTCAA,-0.26
24,CAGGGAAG,-0.22
25,ATTTGAAG,-0.0999

row,Sequence,binding signal [E-score]
1,CTAGTTAA,0.327
2,CCACTCCG,-0.132
3,ACCCTTAG,-0.0473
4,CTACTCAG,0.0557
5,ATTATACA,0.333
6,AACTAAAG,-0.0536
7,ATAGCGCC,0.0646
8,GAGACGAA,-0.0812
9,TGACAGCA,-0.0757
10,AACGTGGA,0.103
11,CAATCTCG,0.00272
12,GGATGAAA,0.195
13,CAGAGGAA,-0.0243
14,GCGCGAAC,-0.0346
15,ATTGACAG,0.0109
16,TAAAGTCA,-0.0164
17,CCCAGCGG,-0.261
18,GTCGAAGA,-0.229
19,GAATGGGA,-0.108
20,CCAGCACA,-0.23
21,ACAGATTA,0.0434
22,AATACAAC,0.278
23,CTATAACC,0.00998
24,GATAACAA,0.158
25,ATGTAACG,0.168

row,Sequence,binding signal [E-score]
1,ACAGATGC,-0.223
2,GAGTTATC,0.206
3,ATTTAAAC,0.0707
4,CAAAACCA,-0.0222
5,CCTGCGGC,-0.224
6,CGGTGGTA,0.198
7,CGCAAAGA,-0.193
8,AGAGGGCG,-0.291
9,GGGTTTAA,-0.164
10,CAATGGAC,0.00709
11,AAGTTAAC,0.178
12,AGACGTTA,0.0889
13,CTCTTCGC,0.115
14,ATAACCAA,0.23
15,ACAGCTCT,-0.144
16,ATAAAAGA,0.0514
17,CAACAGGG,-0.0974
18,GAGCCGGA,-0.257
19,GTGGCGTA,0.0938
20,ACTATGGA,0.0778
21,GGTTTTTA,0.295
22,TATCTACA,0.361
23,GGCGGCAC,-0.203
24,CATCACCG,-0.297
25,CCGGCGGC,-0.337

row,Sequence,binding signal [E-score]
1,CGCTTAAG,-0.0513
2,CATGGGGA,-0.224
3,GACTAGCC,-0.0639
4,GCGCAGCA,-0.23
5,AGCCTATC,-0.00476
6,ACAAGCGT,-0.0185
7,TCGCGCAA,0.00428
8,GGCGAGCC,-0.342
9,ATAAACAT,0.147
10,GTGCCCCA,-0.248
11,GGCTTGAA,-0.105
12,AGTCAATA,0.254
13,ATGTGTTC,-0.0814
14,ATACATTG,0.3
15,ACCTAATC,0.204
16,ACCAAAAA,0.167
17,ATAGAATG,0.165
18,ACTTTAGA,-0.000697
19,CCGTGTCC,-0.357
20,AGAGCAGC,-0.187
21,ACTCGAGT,-0.131
22,CGTAACAG,0.131
23,GGTAAGCA,0.0231
24,AAACAGGA,-0.186
25,CCTCTGGC,-0.246

row,Sequence,binding signal [E-score]
1,CAAGACAG,-0.2
2,GCCACGAA,-0.0882
3,AGAATCCT,-0.0221
4,CGGTTGAA,-0.0645
5,GGCCTGTA,-0.146
6,CTTACCCA,0.00339
7,AAAGAGAG,-0.0871
8,CTTCTATA,0.211
9,TAACGAAA,0.296
10,AAGCACGG,-0.0503
11,CAGACATA,0.183
12,TCTTATCA,0.163
13,TGCGCAAA,-0.0259
14,AGGTTACT,-0.00121
15,AGAGCGCC,-0.233
16,TGAGTCCA,-0.0978
17,GTTGAAAC,0.109
18,GCGCTATA,0.22
19,CGGCCCTC,-0.334
20,AGTTGACA,-0.0085
21,ATGGGGCC,-0.169
22,AGCTCTGG,-0.124
23,AAACGACG,-0.102
24,AAACCCGC,-0.173
25,ATACTTGA,0.182

row,Sequence,binding signal [E-score]
1,ACGTGAGA,0.0082
2,ATGTTGGC,-0.0609
3,ATTGGCAC,0.044
4,TATACTGA,0.213
5,AATCAGGC,0.233
6,GTGACTTA,0.0387
7,CAATGGTC,-0.0277
8,CAATAAAC,0.0505
9,GCATGCCA,-0.34
10,CAGTATCA,0.0403
11,CTCTACGA,0.107
12,CGTGTCGC,-0.0215
13,ATGAAGAG,-0.149
14,ACCGTAAG,0.0939
15,GGCGATAC,0.0323
16,ACATCCCT,-0.0424
17,TGAATGAA,-0.0301
18,GGACTTCA,-0.105
19,CATAGTAG,0.195
20,AAGGACTG,-0.0637
21,GTGTCCGA,-0.14
22,ATCCGGTG,0.0546
23,AAGTAAGT,0.263
24,GTGGACGA,-0.186
25,CGAAACCG,-0.0705

row,Sequence,binding signal [E-score]
1,AGGAATAG,-0.141
2,AACCGGAT,-0.122
3,ATCCCGAC,-0.134
4,GCCCCTCA,-0.117
5,GATGGCTA,-0.111
6,CTAGGGGA,-0.354
7,AAGGGGTC,-0.19
8,CGCATGCC,-0.295
9,AGAGAACA,0.142
10,GTTCGTTA,0.0459
11,CGTGAGCA,-0.11
12,CATTACGC,0.0562
13,CGTAGGAA,0.155
14,ACTGACGA,0.1
15,ACGATCGT,-0.0944
16,ACCCTATC,0.107
17,GACTCATC,-0.033
18,TAAAGCGA,-0.163
19,ACAACAAG,0.0212
20,CTCTCAGA,-0.0688
21,AGATAATC,0.157
22,CTAACAGC,-0.0319
